In PubChem BioAssay AID485290 (National Center for Advancing Translational Sciences (NCATS), 2010):
The whole screen tested about 350,000 compounds, of which about 990 (0.28%) were called active. This list was built around the results that the source calls inconclusive (neither active nor inactive); the mix of calls is not that of the screen. Calls follow the shape of the dose curve; as a rule, active = well fitted inhibition curve with a large enough effect; inconclusive = small, poorly fitted or top-dose-only effect; inactive = no such curve, though single readings can be large or run the other way. A potency beside an inconclusive call is a rough fit, not a confirmed value.

target: Tyrosyl-DNA phosphodiesterase 1 (Homo sapiens) (UniProt Q9NUW8); assay: qHTS Assay for Inhibitors of Tyrosyl-DNA Phosphodiesterase (TDP1); conditions: recombinant TDP1, AlphaScreen DNA substrate cleavage; activity change, negative = inhibition: at 130 µM (top of the series) unless noted; also: nearly all actives have a fitted effect of over 40% in size
Sequence of UniProt Q9NUW8 (Q9NUW8 whole entry, looked up): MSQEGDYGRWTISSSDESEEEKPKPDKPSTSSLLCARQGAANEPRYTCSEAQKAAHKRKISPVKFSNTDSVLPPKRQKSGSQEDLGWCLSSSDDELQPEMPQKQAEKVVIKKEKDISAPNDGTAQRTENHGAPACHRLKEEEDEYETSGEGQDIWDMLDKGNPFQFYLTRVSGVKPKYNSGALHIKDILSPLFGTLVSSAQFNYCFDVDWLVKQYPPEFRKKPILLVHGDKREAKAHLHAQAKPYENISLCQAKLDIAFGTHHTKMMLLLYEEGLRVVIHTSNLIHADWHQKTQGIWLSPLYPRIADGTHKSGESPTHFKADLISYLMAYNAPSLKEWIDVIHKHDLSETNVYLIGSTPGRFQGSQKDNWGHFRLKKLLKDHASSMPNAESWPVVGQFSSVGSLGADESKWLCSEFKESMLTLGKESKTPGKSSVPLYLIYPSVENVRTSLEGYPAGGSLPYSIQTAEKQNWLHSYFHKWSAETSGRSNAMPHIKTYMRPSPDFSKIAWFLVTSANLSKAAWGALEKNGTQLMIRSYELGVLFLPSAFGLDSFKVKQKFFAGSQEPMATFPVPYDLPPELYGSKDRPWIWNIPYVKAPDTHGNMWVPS
Procedure, shortened: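 Steps: enzyme plus compound, 15 min RT; add biotin/phosphotyrosine-FITC oligonucleotide (15 nM final), react 5 min; add donor/acceptor beads (10 ug/ml final), 10 min; read AlphaScreen. Tdp1 at 1 nM final.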
% is scaled to controls: 0 for no effect and ±100 for the full control effect; potency is read from the fitted curve at half-maximal effect; tags tell the direction and shape of the fitted curve.

SMILES | Potency | activity change, negative = inhibition
CCOC(=O)c1ccccc1NC(=O)c1c(F)c(F)c(F)c(F)c1F | inconclusive: 20 µM [inhibitor, partial curve] | –
Nc1ccc(N)c(C(=O)O)c1 | active: 0.282 µM | –
COc1cccc(C(=O)OCC(=O)Nc2sc3c(c2C(N)=O)CCC3)c1O | inconclusive: 39.8 µM [inhibitor, partial curve] | –
CN(CC(=O)Nc1cccc(F)c1)C(=O)C1(c2ccccc2)CC1 | – | inactive: 1.76%
COC(=O)c1ccc(NS(=O)(=O)c2ccc3[nH]c(=O)oc3c2)cc1 | inconclusive: 89.1 µM [inhibitor, single point] | –
O=C(O)c1cc(N(Cc2ccccc2O)Cc2cc(O)ccc2O)ccc1O | inconclusive: 0.1 µM [inhibitor, full curve, poor fit] | –
CCOC(=O)C1=C(COC(=O)CCNS(=O)(=O)c2ccc(C)c(C)c2)NC(=O)NC1C (stereo not given) | – | inactive: 0.0618%
O=S(=O)(c1ccccc1)N1CCC(O)(CSc2ccc(Cl)cc2)CC1 | – | inactive: -0.952%
CCCOC(=O)COC(=O)c1ccccc1NC(=O)c1ccccc1 | inconclusive: 35.5 µM [inhibitor, single point] | –
COc1ccc(S(=O)(=O)N2Cc3ccccc3CC2C(=O)O)cc1 (stereo not given) | active: 28.2 µM | –
O=C(CSc1nc2ccccc2c(=O)[nH]1)Nc1ccc(N2CCOCC2)c(Cl)c1 | – | inconclusive: -21.2% [inhibitor] [at 0.0935 µM]
O=c1c2c(nc3cc(-c4ccc(F)cc4)[nH]n13)CCCC2 | inconclusive: 56.2 µM [inhibitor, partial curve] | –
CC(C)n1cc(-c2ccc(Cl)cc2)cc(C#N)c1=O | inconclusive: 28.2 µM [inhibitor, single point] | –
CN(C)Cc1ccccc1-c1cncnc1Nc1ccc(F)cc1 | inconclusive: 70.8 µM [inhibitor, single point] | –
c1csc(-c2csc(-c3cccs3)n2)c1 | inconclusive: 20 µM [inhibitor, full curve, poor fit] | –
COC(=O)c1c(NC(=O)c2ccc(OC)cc2OC)sc2c1CCCCC2 | inconclusive: 20 µM [inhibitor, partial curve] | –
CC1=CC(C)(C)NC(=S)N1c1cccc2cc(S(=O)(=O)O)ccc12 | inconclusive: 56.2 µM [inhibitor, partial curve] | –
C#CCOCCOCCOCCNc1nc(N2CCN(C(=O)[C@H](CCCCN)n3cc(C(N)CO)nn3)CC2)nc(N2CCN(C(=O)[C@H](CCC(=O)O)n3cc(C(N)CC(C)C)nn3)CC2)n1 (stereo not given in full) | inconclusive: 35.5 µM [inhibitor, partial curve] | –
CC(NS(=O)(=O)c1ccc(Cl)cc1)C(=O)NCc1ccco1 (stereo not given) | inconclusive: 10 µM [inhibitor, full curve] | –
CCc1nnc(NC(=O)c2sc3nc4cc(C)ccc4cc3c2N)s1 | inconclusive: 89.1 µM [inhibitor, single point] | –
O=C(c1ccco1)N1CCN(C(=O)c2ccc(-c3ccc([N+](=O)[O-])cc3)o2)CC1 | active: 35.5 µM | –
Cn1c(NCc2ccccc2)cc(=O)n(C)c1=O | – | inactive: -4.37%
CCOC(=O)C1CCN(c2cc3c(cc2NC(=O)c2ccc(Cl)cc2)n(C)c(=O)n3C)CC1 | – | inactive: -4.25% [at 12.3 µM]
Cc1cc(N2CCC(C)CC2)nc(-c2ccccc2O)n1 | inconclusive: 44.7 µM [inhibitor, partial curve] | –

SMILES | Potency | activity change, negative = inhibition
O=C(O)c1ccccc1-c1ccc(/C=c2\sc3nc4cc(Br)cnc4n3c2=O)o1 | active: 7.94 µM | –
CC1CCCCN1C(=O)CSc1nnc(-c2ccccc2O)o1 (stereo not given) | inconclusive: 0.708 µM [inhibitor, full curve] | –
Cc1nnc(SCC2=C(C(=O)O)N3C(=O)C(NC(=O)c4cc(F)c(F)cc4Cl)C3SC2)s1 (stereo not given) | inconclusive: 31.6 µM [inhibitor, partial curve] | –
Cc1cccc2[nH]c(SCC(=O)O)nc12 | inconclusive: 20 µM [inhibitor, partial curve] | –
Cc1ccc(SCC(=O)c2sc(-c3ccccc3)nc2C)cc1 | inconclusive: 56.2 µM [inhibitor, partial curve] | –
CCC1=C(c2ccc(C)cc2)S(=O)(=O)N=C1N1CCC(C(=O)NCc2ccc(C)cc2)CC1 | – | inactive: 3.9%
O=C(O)CC(Sc1n[nH]c(=S)s1)C(=O)O (stereo not given) | inconclusive: 35.5 µM [inhibitor, partial curve] | –
O=C(Nc1nccs1)c1cn(-c2ccccc2)nc1-c1ccncc1 | active: 79.4 µM | –
CN(C)C(=O)c1ccc(-c2cncnc2NCc2cccs2)cc1 | active: 28.2 µM | –
Nc1cccc2c(=O)c3ccccc3[nH]c12 | inconclusive: 70.8 µM [inhibitor, partial curve] | –
CCOC(=O)c1c(NC(=O)C2C3C=CC(C3)C2(C)C(=O)O)sc2c1CCCC2 (stereo not given) | inconclusive: 89.1 µM [inhibitor, single point] | –
COc1cc(/C=N/NC(=O)c2cccnc2)ccc1OC(=O)c1cc(OC)c(OC)c(OC)c1 | inconclusive: 89.1 µM [inhibitor, single point] | –
CC1CCCN(S(=O)(=O)c2cccc(C(=O)OCC(=O)N(C)Cc3c(F)cccc3Cl)c2)C1 (stereo not given) | inconclusive: 56.2 µM [inhibitor, partial curve] | –
CC1Cc2cc(C(=O)O)ccc2O1 (stereo not given) | inconclusive: 56.2 µM [inhibitor, partial curve] | –
O=C(O)c1cc(-c2ccco2)nn1-c1cccc(Cl)c1 | inconclusive: 20 µM [inhibitor, full curve] | –
CCC(C)[C@H]1CNCCN1CCc1cccc2ccccc12 (stereo not given in full) | inconclusive: 44.7 µM [inhibitor, partial curve] | –
COc1ccccc1NC(=O)c1cnc(Nc2ccccc2OC)c2ccccc12 | inconclusive: 20 µM [inhibitor, partial curve] | –
COc1ccc(-c2[nH]c3ccccc3c2SCCNC(=O)c2ccc(S(=O)(=O)N(C)C)cc2)cc1 | – | inactive: 11.8%
N#Cc1nc(-c2cccs2)oc1NCCCN1CCOCC1 | – | inactive: -2.78%
C[C@@H]1NC(=O)c2cc([N+](=O)[O-])cc(I)c2NCCCC[C@@H](C(N)=O)NC(=O)[C@H](CC(N)=O)NC1=O | inconclusive: 89.1 µM [inhibitor, single point] | –
COCCNc1nc(CSc2ccccc2)nc2sc(C)c(C)c12 | inconclusive: 44.7 µM [inhibitor, single point] | –
COc1ccccc1N(C)C(=O)Cn1c(=O)oc2cc(S(=O)(=O)N3CCCC3)ccc21 | – | inactive: 0%
O=C(O)CCNC(=O)c1ccc(N=Nc2ccc(O)c(C(=O)O)c2)cc1 | inconclusive: 89.1 µM [inhibitor, single point] | –
NS(=O)(=O)c1cccc(NC(=O)COC(=O)/C=C/c2nc3ccccc3s2)c1 | inconclusive: 89.1 µM [inhibitor, single point] | –

SMILES | Potency | activity change, negative = inhibition
O=C(CN1C(=O)S/C(=C\c2ccc(-c3cc(C(=O)O)ccc3Cl)o2)C1=O)Nc1ccc2c(c1)OCO2 | active: 7.94 µM | –
S=c1[nH]nc(-c2ccc(Cl)cc2)n1-c1ccc(Cl)cc1 | – | inactive: 5.12%
Cc1nnc(SCC2=C(C(=O)O)N3C(=O)C(NC(=O)Cn4nc(C(F)F)c(Cl)c4C)C3SC2)s1 (stereo not given) | inconclusive: 15.8 µM [inhibitor, full curve, poor fit] | –
O=C(c1ccc(=O)oc1)N1CCCc2ccccc21 | active: 17.8 µM | –
COc1ccccc1/C=C/C=N/NC(=O)CCn1nnc2ccccc21 | – | inactive: 4.43%
COc1cc(CNCCNC(=O)c2nonc2N)ccc1OCc1ccc(Cl)nc1 | – | inactive: 0%
COc1ccc(C(=O)/C=C/C(=O)N(CC(=O)NC2CCCCC2)Cc2ccccc2OC)c(O)c1 | – | inactive: 1.2%
O=C(O)COc1ccccc1/C=N/NC(=O)COc1ccc(-c2ccccc2)cc1 | – | inactive: 3.09%
O=C(CCc1ccccc1)NNC(=O)c1ccncc1 | inconclusive: 0.708 µM [inhibitor, single point] | –
NC(N)=NC1=NC(=O)/C(=C/c2ccccc2-n2cccn2)S1 | inconclusive: 28.2 µM [inhibitor, partial curve] | –
c1coc(-c2nc3cc4ccccc4cc3nc2-c2ccco2)c1 | inconclusive: 25.1 µM [inhibitor, full curve] | –
NCCCC[C@H]1CNC(=O)C(=O)N1CC1CCCCC1 | inconclusive: 56.2 µM [inhibitor, partial curve] | –
CC12C=C(/C=C/C=C/c3ccco3)C(C)(C1)C(/C=C/c1ccco1)CC2=O (stereo not given) | active: 2 µM | –
CCn1c(SCc2ccc(OC)c(F)c2)nc2ccccc2c1=O | inconclusive: 70.8 µM [inhibitor, single point] | –
O=[N+]([O-])c1ccc(S(=O)(=O)NCCc2cn3ccccc3n2)cc1 | – | inactive: -2.63%
CCOC(=O)/C(=N/Nc1ccccc1)c1csc(Nc2ccccc2)n1 | – | inactive: 9.64%
CCC(Cl)CC(Cl)C(Cl)C(Cl)C(Cl)C(C)Cl (stereo not given) | inconclusive: 44.7 µM [inhibitor, single point] | –
CC(C)(C)Cn1nc(-c2ccc(Cl)cc2)c2c(N)ncnc21 | inconclusive: 5.01 µM [inhibitor, partial curve] | –
Cc1ccc(C(=O)NCC(=O)O)s1 | inconclusive: 79.4 µM [inhibitor, partial curve] | –
CCC(=O)N1CCN(c2ccc(Cl)cc2NC(=O)Cc2ccc(Cl)cc2)CC1 | – | inactive: 0%
Cc1ccccc1-c1nc(Cc2ccccc2)no1 | inconclusive: 14.1 µM [inhibitor, full curve, poor fit] | –
c1ccc(CNc2ccnc(-c3ccc4c(c3)OCO4)n2)cc1 | inconclusive: 25.1 µM [inhibitor, partial curve] | –
